Test results reported in PubChem BioAssay AID2451 (National Center for Advancing Translational Sciences (NCATS), 2010).
Several values for one entry are separate records, joined by “and”; a condition that tells them apart may be missing. Equal values may be shown once. Out of some 290,000 compounds screened, about 2,100 (0.72%) were called active. The shares of active, inactive and inconclusive entries below differ from those in the screen. The call rests on the fitted dose curve; in most records, active means well fitted inhibition curve with a large enough effect; inconclusive means small, poorly fitted or top-dose-only effect, or effect the other way; inactive means flat fitted curve, though single readings scatter. Where the call is inconclusive, the potency comes from a doubtful curve fit.

These compounds were tested against Fructose-bisphosphate aldolase (Giardia intestinalis (strain ATCC 50803 / WB clone C6)) (UniProt A8B2U2) (assay: qHTS Assay for Inhibitors of Fructose-1,6-bisphosphate Aldolase from Giardia Lamblia). Settings: purified Giardia FBPA; activity, negative = inhibition: at 59.6 µM (top of the series) unless noted.
Chain of UniProt A8B2U2 (A8B2U2 whole entry, looked up): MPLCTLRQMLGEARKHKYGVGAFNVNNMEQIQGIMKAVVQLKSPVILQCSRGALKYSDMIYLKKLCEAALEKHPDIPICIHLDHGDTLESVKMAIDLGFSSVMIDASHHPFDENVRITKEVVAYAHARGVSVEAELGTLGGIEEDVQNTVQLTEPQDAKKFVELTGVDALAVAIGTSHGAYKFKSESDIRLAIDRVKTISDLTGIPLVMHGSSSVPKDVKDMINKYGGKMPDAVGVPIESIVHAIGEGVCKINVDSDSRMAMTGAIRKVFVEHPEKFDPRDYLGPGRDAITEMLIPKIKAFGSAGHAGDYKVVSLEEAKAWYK
How it was run: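 40 nM FBPA preincubated 10 min at RT with compound (up to 57.5 uM final), then substrate plus GAPDH/TPI/NAD/arsenate coupling and diaphorase/resazurin added. Fluorescence read after 20 min at RT, 525/598 nm.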
Further: nearly all actives have a fitted effect of over 55% in size.
On the % scale 0 is the no-effect control and ±100 the full control effect; potency means the concentration at half of the fitted maximal effect; tags describe the fitted curve by direction and shape.

Row | Compound | activity, negative = inhibition | Potency
1 | Cc1cc(C)cc(NC(=O)c2c(C)nc3ccccn23)c1 | inactive: -2.01% | 
2 | CN(C)CCCn1c(SCC(=O)Nc2sc3c(c2C#N)CCCC3)nnc1-c1ccncc1 |  | inconclusive: 19.9 µM [inhibitor, single point]
3 | COc1cc2ccccc2cc1C(=O)NC(=S)Nc1nnn(C)n1 |  | inconclusive: 1.12 µM [inhibitor, full curve, poor fit]
4 | O=Nc1c(-c2c(O)[nH]c3cc(Br)ccc23)[nH]c2ccccc12 |  | inactive
5 | Cc1onc(-c2ccccc2)c1C(=O)N/N=C/C(Br)=C/c1ccccc1 | inactive: 11.4% | 
6 | Cc1ccc(C)c(CN2CCSCC2)c1 |  | inconclusive: 22.4 µM [inhibitor, single point]
7 | CC(=O)Nc1ccc(N(CC(=O)NC2CCCCC2)C(=O)Cn2nnc(-c3ccccc3)n2)cc1 | inactive: 2.31% | 
8 | Cc1nn(C)c(C)c1CNC(=O)/C=C/c1ccccc1F | inactive: 0.668% | 
9 | O=C1c2ccccc2-n2c1nc1ccccc1c2=O |  | inconclusive: 7.06 µM [inhibitor, partial curve] and inconclusive: 6.29 µM [inhibitor, partial curve] and inconclusive: 7.92 µM [inhibitor, partial curve]
10 | COc1ccc(S(=O)(=O)N(CCc2ccccc2)CC(=O)O)cc1C |  | inconclusive: 22.3 µM [activator, single point]
11 | Nc1ccc2c(C(F)(F)F)cc(C(F)(F)F)nc2n1 |  | inconclusive: 15.8 µM [inhibitor, partial curve]
12 | Cc1ccc(C(=O)N2CCN(c3ncnc4c(-c5ccccc5)nsc34)CC2)cc1 | inactive: 6.6% | 
13 | Cc1ccccc1S(=O)(=O)Cc1ccc(C(=O)NCCCN2CCCC2)o1 |  | inconclusive: 39.8 µM [activator, single point]
14 | O=S(=O)(c1ccccc1)c1nc(-c2ccccc2)oc1NCc1cccnc1 | inactive: 1.51% | 
15 | CCOC(=O)c1sc(N2N=C(C)/C(=C\c3ccc(OCC(=O)OC)cc3)C2=O)nc1C |  | inconclusive: 31.5 µM [activator, single point]
16 | O=C(NC(=S)Nc1cccc2[nH]ncc12)c1ccccc1 | inactive: -11.5% | 
17 | O=C(CSc1nnc2c3ccccc3c3ccccc3c2n1)Nc1ccccc1F |  | inconclusive: 12.6 µM [inhibitor, partial curve]
18 | CCOC(=O)c1ccccc1NS(=O)(=O)c1ccccc1 |  | inconclusive: 15.8 µM [inhibitor, partial curve]
19 | CC(=O)C1=C(C)NC(SCC(=O)c2cc(Cl)ccc2Cl)=C(C#N)C1c1ccco1 (centres undefined) |  | inconclusive: 17.7 µM [inhibitor, partial curve]
20 | CCCCSc1nn[nH]n1 |  | inconclusive: 20 µM [inhibitor, partial curve, poor fit]
21 | O=C(O)CNC(=O)/C(=C/c1ccco1)NC(=O)/C=C/c1ccccc1 |  | inconclusive: 1.58 µM [inhibitor, full curve, poor fit]
22 | CCOc1cc(/C=C2\SC(=N)N(c3nccs3)C2=O)ccc1OCCN1CCOCC1 |  | inconclusive: 22.3 µM [activator, single point]
23 | COc1ccc(C(C)=O)cc1COC(=O)c1cc(=O)c2ccccc2o1 | inactive: 2.27% | 
24 | C=CCNC(=O)/C(C#N)=C\c1cc(Cl)c(O)c(OCC)c1 |  | inconclusive: 17.7 µM [inhibitor, partial curve]
25 | Clc1ccc(N/N=C/c2ccncc2)cc1Cl | inactive: 6.79% | 

Row | Compound | activity, negative = inhibition | Potency
26 | CCc1ccc(C(=O)CSc2ncn[nH]2)cc1 |  | inconclusive: 19.9 µM [inhibitor, partial curve]
27 | Cc1cccc(C(=O)Nc2nnc(-c3ccncc3)o2)c1 |  | inconclusive: 31.5 µM [inhibitor, single point]
28 | Oc1ccccc1N1CCN(c2ncnc3scc(-c4ccccc4)c23)CC1 | inactive: 0.499% | 
29 | O=C1Nc2ccccc2Sc2ccccc21 | inactive: -17.7% | 
30 | COc1cc(C(=O)Nc2ccc(S(=O)(=O)NC(C)(C)C)cc2)cc(OC)c1OC | inactive: 2.07% | 
31 | C/C(=N/NC(N)=S)c1ccc(Br)s1 | inactive: -22.2% | 
32 | CCc1cc(N2CCOCC2)cc2c1[nH]c1ccccc12 |  | inconclusive: 12.6 µM [inhibitor, partial curve]
33 | CCCOc1ccc(C(=O)N/N=C/c2c[nH]c3ccc(Br)cc23)cc1 | inactive: 8.42% | 
34 | Cc1nc(NC(=O)CSc2nnc(C3CC3)n2C)sc1C(=O)N(C)C |  | inconclusive: 31.6 µM [inhibitor, single point]
35 | CCCC(=O)NC(c1ccc2c(c1)OCO2)c1cc(Cl)c2cccnc2c1O (centres undefined) |  | inconclusive: 15.8 µM [activator, partial curve]
36 | O=c1c2ccccc2nc2n1CC/C2=C/N1CCN(c2cccc(C(F)(F)F)c2)CC1 |  | inconclusive: 7.06 µM [inhibitor, full curve]
37 | COCc1cc(=O)n2[nH]c(N)nc2n1 |  | inconclusive: 15.8 µM [inhibitor, single point]
38 | Cc1cccc(NC(=O)CSc2n[nH]c(-c3cccnc3)n2)c1 |  | inconclusive: 22.4 µM [inhibitor, single point]
39 | CCOC(=O)CSc1ncc(OC)c(=O)[nH]1 | inactive: -0.717% | 
40 | COC(=O)C1=C(C)N(CCc2c[nH]c3ccccc23)C(=O)C1 |  | inconclusive: 15.8 µM [inhibitor, partial curve]
41 | NC1=C(Br)C(=O)c2ccccc2C1=O |  | inconclusive: 0.63 µM [inhibitor, full curve]
42 | Cc1ccc(CNC(=S)NC2CCCCC2)cc1 | inactive: -5.2% | 
43 | COc1ccc(-c2nc3n(n2)C(=O)CC(c2ccco2)S3)cc1 (centres undefined) | inactive: -6.67% | 
44 | COc1ccc(CCNC(=O)COC(=O)Cc2ccccc2)cc1 | inactive: 1.61% | 
45 | CC1=C(C#N)C(c2cccnc2)C2=C(N1)c1ccccc1C2=O (centres undefined) | inactive: -1.26% | 
46 | CCC(=O)NC(c1ccccc1OC)c1ccc2cccnc2c1O (centres undefined) |  | inconclusive: 4.46 µM [inhibitor, full curve]
47 | Cc1cccc(N/C(N)=N/c2nc(C(F)(F)F)cc(=O)[nH]2)c1C | inactive: 11.4% | 
48 | CCN(CC)C(=O)c1ccc2nc3ccccc3nc2c1 | inactive: -5.41% | 
49 | O=C(Nc1ccc2c(c1)OCCO2)C1CCN(S(=O)(=O)c2ccc3c(c2)OCCO3)CC1 | inactive: -5.81% | 
